This note sets out measurements from publication PMC6919601, “Identification of Plasmodium dipeptidyl aminopeptidase allosteric inhibitors by high throughput screening” (PLoS ONE, 2019).

“And” between values parts separate entries of the source, which are not always exact repeats. Equal values may be shown once. The whole screen tested about 110,000 compounds, of which about 230 (0.21%) showed an effect of 50% or more. The list shows a part of the results.
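Also: 30 min substrate incubation versus DMSO and 10 µM JCP410 controls.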

Chain of DPAP1 (Q8IIJ9 whole entry, looked up): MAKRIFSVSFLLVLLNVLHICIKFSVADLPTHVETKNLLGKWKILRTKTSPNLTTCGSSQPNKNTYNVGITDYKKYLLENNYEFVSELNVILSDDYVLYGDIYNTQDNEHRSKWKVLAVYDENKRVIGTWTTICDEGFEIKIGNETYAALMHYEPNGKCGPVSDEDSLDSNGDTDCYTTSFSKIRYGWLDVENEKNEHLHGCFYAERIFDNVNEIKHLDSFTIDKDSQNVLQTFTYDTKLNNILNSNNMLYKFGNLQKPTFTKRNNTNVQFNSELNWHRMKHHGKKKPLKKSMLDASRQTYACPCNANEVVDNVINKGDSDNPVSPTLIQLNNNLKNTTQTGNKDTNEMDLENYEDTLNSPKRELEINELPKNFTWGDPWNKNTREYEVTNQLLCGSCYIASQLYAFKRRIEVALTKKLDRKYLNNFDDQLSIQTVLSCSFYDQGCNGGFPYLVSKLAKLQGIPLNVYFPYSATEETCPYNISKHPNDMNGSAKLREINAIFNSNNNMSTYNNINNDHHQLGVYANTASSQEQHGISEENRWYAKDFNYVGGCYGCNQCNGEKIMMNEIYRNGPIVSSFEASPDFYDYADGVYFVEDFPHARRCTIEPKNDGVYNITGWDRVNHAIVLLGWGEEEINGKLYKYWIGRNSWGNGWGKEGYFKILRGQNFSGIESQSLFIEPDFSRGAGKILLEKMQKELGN

This test concerns the target DPAP1 (Plasmodium falciparum, UniProt Q8IIJ9). Briefly: primary screen, percent inhibition; read by cleavage of a fluorogenic dipeptide substrate; higher = more effect of the substance. More on the design: species or system P. falciparum D10 trophozoite lysates; single well.
As to `O=C(NCc1ccccc1Cl)c1ccc2c(c1)ncn2C1CCCC1`, the “% Inhibition @ 10 uM” value turned out to be 0.387%. As for `COc1ccc(-c2nc(CSCC(=O)NC3CCCCC3)c(C)o2)cc1`, the figure is 2.37%; as for `Cc1c(Cl)cccc1-c1ccc(C(=O)Nc2ccccn2)o1`, 6.22%; as for `CCOC(=O)C1=CN(Cc2ccc(Cl)cc2)C=C(C(=O)OCC)C1c1ccc(OC)cc1OC`, 3.45%. `CC(=O)c1c(C)oc2ccc(N(C(C)=O)S(=O)(=O)c3cc(C)c(C)cc3C)cc12`: the “% Inhibition @ 10 uM” value is on record as 3.37%. As to `COc1ccc2nc(NC(=O)c3ccc(C)cc3)sc2c1`, the “% Inhibition @ 10 uM” value is reported as -2.05%. In the case of `COCCn1c(C)cc(C(=O)C(=O)Nc2nnc(CSCc3ccccc3)s2)c1C`, the “% Inhibition @ 10 uM” value is recorded as 3.92%. As for `CC1(C)Cc2c(oc(N)c2C#N)CO1`, the figure is 0.774%; as for `CN1C(=O)C2C=CC1C1C(=O)N(Cc3ccccc3)C(=O)C21` (stereo not drawn), 5.77%. Turning to `O=C(COc1ccccc1)Nc1cccc(C(=O)Nc2cccc(Cl)c2)c1`, the “% Inhibition @ 10 uM” value is -6.66%. For `CCC(=O)Nc1c2c(nc3ccccc13)N(C)CC2`, the “% Inhibition @ 10 uM” value was 2.13% and -4.33%. With `COc1ccccc1CN1C[C@@H]2C[C@H](C1)c1cccc(=O)n1C2` the figure was -3.63%; with `COc1ccc(/C=C(\NC(=O)c2ccc(C)cc2)C(=O)N2CCOCC2)cc1`, 0.222%; with `O=C1CC(c2ccc(Cl)cc2)NC(NC(=O)c2ccccc2F)=N1` (stereo not drawn), 1.66%.

With `CC(C)C[C@H](NC(=O)c1cccc([N+](=O)[O-])c1)C(=O)NCC#N`, the “% Inhibition @ 10 uM” value is -2.35%. With `CC1CCN(S(=O)(=O)c2ccc(C3CCCCC3)cc2)CC1` the figure was 4.37%.

For `Cc1cc(C)c2c(=O)n(CC(=O)NCc3ccc4c(c3)OCO4)sc2n1`, the “% Inhibition @ 10 uM” value stood at 12%. As to `O=C(NC1(C(F)(F)F)C(=O)Nc2c1c(=O)[nH]c(=O)n2-c1ccc(Cl)cc1)c1ccco1` (stereo not drawn), the “% Inhibition @ 10 uM” value is listed as -7.56%.

Regarding `Cn1ccc(C(=O)Nc2sc3c(c2C#N)CCCC3)n1`, the “% Inhibition @ 10 uM” value came to 2.36%. Turning to `CCOc1cccc(C2CC(=O)NC3=C2C(=O)CC(C)(C)C3)c1` (stereo not drawn), the “% Inhibition @ 10 uM” value is -5.88%.

For the compound `COc1ccc(C2C(C#N)=C(N)N(c3nc[nH]n3)C3=C2C(=O)CCC3)c(OC)c1` (stereo not drawn), the “% Inhibition @ 10 uM” value is given as -1.38%. Consider `COCCCNC(=O)c1c(NC(=O)c2oc3ccccc3c2C)sc2c1CCCC2`, for which the “% Inhibition @ 10 uM” value is on record as 0.83%. As for `Cc1ccc(-c2cc3nc4c(c(O)n3n2)CCCC4)cc1`, the figure is -0.169%; as for `O=C(CN(C1CCCCC1)S(=O)(=O)c1ccc(Cl)cc1)NCc1ccncc1`, 4.03%. With `CCOc1cc(C2Nc3ccccc3C(=O)N2Cc2ccco2)ccc1O` (stereo not drawn) the figure was 7.46%; with `CCOc1ccc(-c2nc(CSCC(=O)NCCCN3CCCC3)c(C)o2)cc1`, -0.971%. With `Cn1c2c(c(=O)n(C)c1=O)C(c1ccc(O)cc1)C1C(=O)c3ccccc3C1=N2` (stereo not drawn) the figure was -17.2%; with `CCCC1=NN2C(=N)/C(=C/c3c[nH]c4ccccc34)C(=O)N=C2S1`, 4.01%. As to `Cn1c(=O)c2c(nc(OCc3ccc4c(c3)OCO4)n2Cc2ccccc2)n(C)c1=O`, the “% Inhibition @ 10 uM” value turned out to be 0.0645%. As for `CC(C)c1ccc(/C=c2\sc3ncnn3c2=O)cc1`, the figure is 5.12%; as for `COc1ccc(C2CC(c3ccccc3OC(F)F)n3nnnc3N2)cc1` (stereo not drawn), -1.62%; as for `COC(=O)C1=CN(C)C=C(C(=O)OC)C1c1ccccc1C`, -5.26%.

For `c1ccc(-c2cc3c(ccc4nonc43)nn2)cc1`, the “% Inhibition @ 10 uM” value is recorded as -0.294%. Turning to `CN(Cc1ccccc1)C(=O)C1CCCN(Cc2cc(Br)ccc2O)C1` (stereo not drawn), the “% Inhibition @ 10 uM” value was determined as 2.25%. With `CC(C)NC(=O)c1ccc(N(Cc2ccc(Cl)cc2)S(C)(=O)=O)cc1` the figure was -4.82%; with `OCC1CCCCN1Cc1ccc(Cl)cc1` (stereo not drawn), -1.62%.

For the compound `CCSC1=C(C#N)C(CC(C)C)C2=C(O)CCCC2=N1` (stereo not drawn), the “% Inhibition @ 10 uM” value is listed as -1.32%. Consider `CC1Cc2cc(C(=O)C3=C(O)C(=O)N(CC4CCCO4)C3c3ccncc3)ccc2O1` (stereo not drawn), for which the “% Inhibition @ 10 uM” value was -7.28%. Regarding `COCCCN1C(=O)C(O)=C(C(=O)c2ccc(C)cc2)C1/C=C/c1ccccc1` (stereo not drawn), the “% Inhibition @ 10 uM” value is reported as 3.66%. As for `CCOCCCNC(=O)C(C)Sc1ccc(Cl)cc1` (stereo not drawn), the figure is 1.71%; as for `CCCCCn1c(=N)c(S(=O)(=O)c2ccc(Cl)cc2)cc2c(=O)n3cccc(C)c3nc21`, 0.0069%; as for `Cc1ccc(SCC(=O)NCC(C)C)cc1`, 0.674%. As for `COc1ccc(C2C3=C(N=C4SCC(=O)N42)c2ccccc2CC3)cc1OC` (stereo not drawn), the figure is 0.528%; as for `COc1cccc(-c2nnc(-c3ccc(OC)c(OC)c3)o2)c1`, 2.41%; as for `Cn1nnnc1SCCCNCc1ccc(F)cc1`, -4.71%. As for `O=C(NC12CC3CC(CC(C3)C1)C2)C(F)(F)F`, the figure is 5.98%; as for `O=C1OC(c2ccc(-c3ccccc3)cc2)=N/C1=C\c1ccc2c(c1)OCO2`, -6.77%; as for `O=C(NCc1nc(-c2ccccc2)no1)c1ccc(Br)cc1`, -2.99%. As to `CC(C)(C)C1CCc2c(sc(NC(=O)CCCC(=O)O)c2C#N)C1` (stereo not drawn), the “% Inhibition @ 10 uM” value is -0.413%. With `COc1cc(C2C(C#N)=C(N)N(c3nc[nH]n3)C3=C2C(=O)CCC3)cc(OC)c1OC` (stereo not drawn) the figure was 3.99%; with `O=C(Nc1ccc(Cl)cn1)c1cccc2c(Br)cccc12`, 5.98%.

As to `O=C(C1=C(O)C(=O)N(CCCn2ccnc2)C1c1cccc(O)c1)c1ccc2c(c1)OCCO2` (stereo not drawn), the “% Inhibition @ 10 uM” value amounted to 0.245%. Take `COc1cc(OC)c(NC(=O)c2ccc(Br)o2)cc1Cl`: the “% Inhibition @ 10 uM” value is reported as 3.74%. With `CC(C)OC(=O)c1c(NC(=O)C2CCCCC2)sc2c1CCCC2` the figure was -1.1%; with `O=S(=O)(CC(CN1CCCCC1)N1CCCCC1)c1ccc2ccccc2c1` (stereo not drawn), -3.13%; with `CCOCCn1c(CN2CCCC(C)C2)nc2c1c(=O)n(C)c(=O)n2C` (stereo not drawn), -3.23%. `CCOc1ccc(CN2CCN(c3ncccn3)CC2)cc1`: the “% Inhibition @ 10 uM” value was -5.57%.

With `Cc1ccc(CNC(=O)c2[nH]nc3c2CCCC3)cc1`, the “% Inhibition @ 10 uM” value is reported as 3.24%. With `COc1ccccc1NC(=O)CN(Cc1ccccc1)S(C)(=O)=O` the figure was -7.18%; with `O=C(Cn1ccc2cc(S(=O)(=O)N3CCCCC3)ccc21)N1CCCCC1`, -2%.

For `CCCNC(=O)C1CCN(S(=O)(=O)c2ccc3nc(O)ccc3c2)CC1`, the “% Inhibition @ 10 uM” value amounted to 0.589%.

As for `COc1ccc(CCn2c3c(c(=O)[nH]c2=O)C(Nc2ncccn2)(C(F)(F)F)C(=O)N3)cc1OC` (stereo not drawn), the “% Inhibition @ 10 uM” value is -2.05%. Turning to `COC(=O)C1=C(C)N(Cc2ccccc2)C(=O)C1(NC(=O)CCc1ccccc1)C(F)(F)F` (stereo not drawn), the “% Inhibition @ 10 uM” value was 0.221%.
